Assay results from US20050208046A1, “TWEAK receptor” (Immunex Corporation, published 2005).

Target: human full length TWEAK (human, UniProt O43508)
Assay: Scatchard analysis, 125I-TWEAKR-Fc on CV-1 cells transfected with human full length TWEAK mixed 1:30 with Raji cells, 4° C.
Method: The cells were incubated with serial dilutions of 125-I labeled human TWEAKR-Fc for 2 hours at 4° C. Free and bound probe was separated by microfuging the samples through a phalate oil mixture in plastic tubes. Supernatants and pellets were gamma-counted.

Ka: ~4.5e+08 M⁻¹
B1: TWEAKR-Fc (Fc fusion)
chain: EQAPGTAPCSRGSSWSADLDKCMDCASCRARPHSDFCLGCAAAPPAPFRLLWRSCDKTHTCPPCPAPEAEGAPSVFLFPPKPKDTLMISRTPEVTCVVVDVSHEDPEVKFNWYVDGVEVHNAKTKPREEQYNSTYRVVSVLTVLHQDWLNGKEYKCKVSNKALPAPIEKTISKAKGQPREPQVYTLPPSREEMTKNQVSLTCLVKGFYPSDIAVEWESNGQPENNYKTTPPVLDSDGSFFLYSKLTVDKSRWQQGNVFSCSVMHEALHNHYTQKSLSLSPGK
